Source: PubChem BioAssay AID886 (National Center for Advancing Translational Sciences (NCATS), 2007)
In all, about 73,000 compounds went through this assay and about 2,500 (3.4%) were called active. Inconclusive means that the source gave no clear call. Such entries were picked first, then a sample of the others. Calls come from the whole dose curve; as a rule, active = well fitted inhibition curve with a large enough effect; inconclusive = small, poorly fitted or top-dose-only effect; inactive = no such curve, though single readings can be large or run the other way. Where the call is inconclusive, the potency comes from a doubtful curve fit.

Each compound was assayed against 3-hydroxyacyl-CoA dehydrogenase type-2 (Homo sapiens) (UniProt Q99714) (assay: qHTS Assay for Inhibitors of HADH2 (Hydroxyacyl-Coenzyme A Dehydrogenase, Type II)). Conditions: recombinant HADH2, NADH fluorescence, beta-hydroxybutyryl-CoA; activity change, negative = inhibition: at 57.1 µM (top of the series).
UniProt Q99714, sequence (Q99714 whole entry, looked up): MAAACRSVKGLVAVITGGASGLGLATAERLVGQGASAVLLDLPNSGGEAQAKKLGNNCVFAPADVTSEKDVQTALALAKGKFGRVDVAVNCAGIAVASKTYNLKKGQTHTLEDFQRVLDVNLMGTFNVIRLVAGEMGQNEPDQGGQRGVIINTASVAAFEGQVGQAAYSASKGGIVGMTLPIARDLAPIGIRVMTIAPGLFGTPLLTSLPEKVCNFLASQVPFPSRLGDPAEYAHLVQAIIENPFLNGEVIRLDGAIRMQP
UniProt Q99714, sequence (Q99714 whole entry, looked up): as above
How it was run: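 NADH fluorescence (ex 360/em 450 nm) read every 30 s for 4 min; activity taken as last-minus-first time point difference. Enzyme 20 nM, NAD+ 1 mM, beta-hydroxybutyryl-CoA 90 uM, pH 9.0 Tris buffer.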
% is set by controls: 0 for no effect and ±100 for the full control effect; potency is the fitted concentration of half-maximal effect; tags give direction and shape of the fitted curve.
Note: nearly all actives have a fitted effect of over 60% in size.

| SMILES | Potency | activity change, negative = inhibition |
| --- | --- | --- |
| CCOC(=O)c1snc2c(=O)[nH]cnc12 | inconclusive: 39.8 µM [inhibitor, single point] | – |
| CC1CCc2cccc3c2N1c1cc(C#N)c(C#N)cc1O3 (configuration not stated) | – | inactive: 14% |
| COc1ccccc1-c1nccc(NCc2cnc(C)cn2)n1 | inconclusive: 31.6 µM [inhibitor, partial curve] | – |
| OB(O)c1cc2ccccc2o1 | inconclusive: 25.1 µM [inhibitor, single point] | – |
| CC(=O)c1cc2ccccc2oc1=O | – | inactive: -14.9% [at 25.6 µM] |
| CS(=O)(=O)N1CCC2(CC1)CN(C(=O)Nc1cccc(C#N)c1)C2 | – | inactive: 7.81% |
| C[C@](Cc1ccc(O)c(O)c1)(NN)C(=O)O | active: 0.316 µM | – |
| O=C(CCN1C(=O)C2C3C=CC(C3)C2C1=O)Nc1c(F)cc(F)cc1Br (configuration not stated) | – | inactive: 1.57% |
| CC(C)OC(=O)CC(=O)CSc1nc2c(cc1C#N)CCC2 | active: 20 µM | – |
| COc1cccc(-c2nc(C(N)=O)c3[nH]c(=O)n(-c4ccccc4)c3n2)c1OC | – | inactive: -12.9% |
| CC(C)[C@H](Sc1nc(N)nc2nc[nH]c12)C(=O)O | – | inactive: 1.87% [at 11.4 µM] |
| O=C(c1ccncc1)N1CCC2(CCCN(c3ccc(-c4ccccc4)cc3)C2)CC1 | – | inactive: 12.8% |
| O=C(CCSCCC(=O)NCc1ccco1)NCc1ccco1 | inconclusive: 7.94 µM [inhibitor, partial curve] | – |
| CCCCNS(=O)(=O)c1ccc2nc(SCC(=O)Nc3sccc3C#N)[nH]c2c1 | inconclusive: 25.1 µM [inhibitor, single point] | – |
| O=c1nc2n(c3sc4c(c13)CCC4)Cc1ccccc1-2 | active: 31.6 µM | – |
| CCCn1c(NC(=O)c2ccc(Cl)c(S(=O)(=O)N3CCCC3)c2)nc2ccccc21 | active: 25.1 µM | – |
| CCc1ccc(NC(=O)CSc2nnc(CNC(=O)c3c(F)cccc3Cl)o2)cc1 | inconclusive: 39.8 µM [inhibitor, single point] | – |
| COc1ccc(S(=O)(=O)N2CCN(C(=O)COc3ccc4c(C)cc(=O)oc4c3)CC2)cc1 | inconclusive: 39.8 µM [inhibitor, single point] | – |
| CCOC(=O)N1CCc2c(sc3c2C(=O)NC(c2ccccc2)N3)C1 (configuration not stated) | inconclusive: 3.16 µM [inhibitor, single point] | – |
| CCN1CCc2c(sc3c2c(NCc2ccco2)nc2nnnn23)C1 | inconclusive: 5.01 µM [inhibitor, single point] | – |
| CC(C)Oc1ccc(C(=O)Nc2ccc(N(C)C)cc2)cc1 | active: 3.16 µM | – |
| c1ccc2c(c1)ncn2Cc1nnc2sc(-c3ccc4c(c3)OCO4)nn12 | active: 15.8 µM | – |
| COc1cc2c(cc1OC)C(c1cc3cc(OC)c(OC)cc3[nH]c1=O)N(C(=O)C1CC1)CC2 (configuration not stated) | inconclusive: 12.6 µM [inhibitor, single point] | – |
| Cn1cnnc1SC(C(=O)c1ccccc1)c1ccccc1 (configuration not stated) | inconclusive: 39.8 µM [inhibitor, single point] | – |
| COc1cc2c(cc1OC)C(COc1ccc3c(C)cc(=O)oc3c1)N(C(=O)c1ccco1)CC2 (configuration not stated) | inconclusive: 39.8 µM [inhibitor, single point] | – |
| Nc1ccccc1S(=O)(=O)O | – | inactive: -10.2% |

| SMILES | Potency | activity change, negative = inhibition |
| --- | --- | --- |
| Cc1ccc(-c2nnc(N3CCN(c4ccccn4)CC3)c3ccccc23)cc1 | inconclusive: 31.6 µM [inhibitor, single point] | – |
| CC(C)[C@H](NC(=O)[C@@H]1CSCN1C(=O)OC(C)(C)C)C(=O)NCC1CCC(C(=O)O)CC1 (some centres not stated) | inconclusive: 7.94 µM [inhibitor, single point] | – |
| C=CCNC(=O)c1sc(=S)n(-c2ccc(C(=O)OCC)cc2)c1N | active: 3.16 µM | – |
| Cc1cc2c(ccc3[nH]onc32)n1 | inconclusive: 2.51 µM [inhibitor, full curve] | – |
| CC1CCN(c2nc3c(c(=O)n(C)c(=O)n3C)n2CCSc2nc3ccccc3s2)CC1 | – | inactive: 8.59% |
| COc1ccc(-c2ccnc(SCC(=O)N3CCOCC3)n2)cc1 | inconclusive: 39.8 µM [inhibitor, single point] | – |
| O=C(Oc1cccc2c(O)cccc12)c1ccccc1 | inconclusive: 12.6 µM [inhibitor, partial curve] | – |
| Cc1oc(/N=C/c2c(O)ccc3ccccc23)c(C#N)c1C | active: 25.1 µM | – |
| COc1cc2ccc(=O)oc2c(O)c1O | active: 0.794 µM | – |
| CCOC(=O)/C=C1\SCC(=O)N1CC(=O)c1ccc[nH]1 | inconclusive: 0.0398 µM [inhibitor, full curve, poor fit] | – |
| O=C(Nc1ccc2c(c1)nc1n2CCSC1)c1ccco1 | inconclusive: 12.6 µM [inhibitor, partial curve] | – |
| O=C(CCn1c(=O)[nH]c2ccsc2c1=O)N1CCc2ccccc2C1 | – | inactive: -1.35% |
| O=C(c1cccn2c(=O)c3ccc(Cl)cc3nc12)N1CCN(Cc2ccc3c(c2)OCO3)CC1 | inconclusive: 39.8 µM [inhibitor, single point] | – |
| Oc1cc2ccccc2cc1-c1n[nH]c(=S)o1 | active: 10 µM | – |
| CCCn1c(-c2ccc(F)cc2)nc2c(NCC3CCCN3CC)nc(C)nc21 (configuration not stated) | – | inactive: 7.86% |
| CC(=O)C(C)Oc1ccc2c3c(c(=O)oc2c1)CCCC3 (configuration not stated) | inconclusive: 39.8 µM [inhibitor, single point] | – |
| CCc1c(C)c2ccc(OCC(=O)OC(C)C)c(C)c2oc1=O | active: 25.1 µM | – |
| COc1cc(OC)cc(-c2cc3nc(C)c(CCC(=O)NC(C)CCc4ccco4)c(C)n3n2)c1 (configuration not stated) | – | inactive: 2.36% |
| NC(=O)c1c(NC(=O)CSc2nnc(-c3ccccc3)n2CC2CCCO2)sc2c1CCC2 (configuration not stated) | inconclusive: 0.0398 µM [inhibitor, full curve, poor fit] | – |
| Cc1cnc(CNc2ncnc3ccc(-c4ccc(N(C)C)cc4)cc23)cn1 | inconclusive: 25.1 µM [inhibitor, single point] | – |
| O=S(=O)(Nc1ccc(-c2nc3cccnc3s2)cc1)c1cccs1 | active: 3.16 µM | – |
| CC(C)(C[C@@]1(C)NC(=O)NC1=O)OCc1ccccc1 | – | inactive: 4.94% [at 11.4 µM] |
| CCNC(=O)C1CC(=O)N(CC)C(=Nc2cc(Cl)c(O)c(Cl)c2)S1 (configuration not stated) | inconclusive: 2 µM [inhibitor, partial curve] | – |
| CC1(C)c2ccccc2N2CC(=O)N(CC(N)=O)C21C (configuration not stated) | – | inactive: -16.1% |
| O=C(O)CCCC(=O)NCCCc1ccccc1 | – | inactive: 7.29% [at 11.4 µM] |
| C[C@@H]1CCC[C@H](C)N1NC(=O)c1ccc(Cl)c(S(N)(=O)=O)c1 | inconclusive: 20 µM [inhibitor, single point] | – |

| SMILES | Potency | activity change, negative = inhibition |
| --- | --- | --- |
| CCCC[C@@H]1C[C@H]1C(NC(=O)c1ccco1)c1ccc(Cl)cc1 (some centres not stated) | – | inactive: -12.3% |
| CC(C(=O)NCc1ccc2c(c1)OCO2)N1c2cccc3cccc(c23)S1(=O)=O (configuration not stated) | inconclusive: 31.6 µM [inhibitor, single point] | – |
| Cc1ccc(S(=O)(=O)N(C)CC(=O)Nc2cccc(C)n2)cc1 | – | inactive: 24.1% |
| CCOC(=O)c1sc(NC(=O)C2CCCO2)c(C(=O)OCC)c1C (configuration not stated) | inconclusive: 20 µM [inhibitor, partial curve] | – |
| Cc1ccccc1-c1nccc(-n2ccnc2)n1 | inconclusive: 31.6 µM [inhibitor, single point] | – |
| CC(C)Cn1c2nc3ccccc3nc2c2c(=O)n(CCN3CCOCC3)cnc21 | inconclusive: 39.8 µM [inhibitor, single point] | – |
| CCOCCCn1c(=NC(=O)c2cccnc2)c(C(=O)OCC)cc2c(=O)n3ccccc3nc21 | active: 15.8 µM | – |
| Cc1ccc(-c2csc(NC(=O)CSc3ncn(-c4ccccc4)n3)n2)cc1 | – | inactive: 6.92% |
| N#Cc1sc2nc3c(c(-c4cccnc4)c2c1N)CCC3 | – | inactive: -3.16% |
| CC1=C(\C=C/C(C)=C/C=C\C(C)=C\C(=O)Nc2ccc(O)cc2)C(C)(C)CCC1 | inconclusive: 7.94 µM [inhibitor, single point] | – |
| O=C(CCCc1ccccc1)NCc1cn2ccsc2n1 | – | inactive: -6.43% |
| CC(C)n1c(CNC(=O)c2ccccc2)nc2ccccc21 | – | inactive: -4.35% |
| CCOC(=O)c1ccc(OCC(=O)c2ccc(O)cc2O)cc1 | inconclusive: 12.6 µM [inhibitor, partial curve] | – |
| CCN(CC)CCNC(=O)Cn1c(-c2ccccn2)nc2ccccc21 | inconclusive: 31.6 µM [inhibitor, partial curve] | – |
| CC(C)COc1ccc(C(=O)N(Cc2ccco2)C2CCS(=O)(=O)C2)cc1 (configuration not stated) | – | inactive: -2.4% |
| COc1ccc(C2C3=C(Nc4ncnn42)c2ccccc2CC3)cc1OC (configuration not stated) | inconclusive: 12.6 µM [inhibitor, partial curve] | – |
| CN(C)Cc1ccccc1-c1cc(-n2ccnc2)ncn1 | inconclusive: 31.6 µM [inhibitor, single point] | – |
| Cn1c(=O)n(C)c2cc(NC(=O)c3cc4ccccc4o3)ccc21 | – | inactive: -5.71% |
| CN(C)c1ccc2nc3c(C(=O)O)cc(=O)c(O)c-3oc2c1 | active: 3.98 µM | – |
| COc1cc(NC(=O)c2cc3ccccc3o2)c(OC)cc1Br | – | inactive: -20.5% |
| Cc1nc(NC2CCCCC2)c2nc(-c3ccccc3)n(CCN(C)C)c2n1 | inconclusive: 31.6 µM [inhibitor, single point] | – |
| N#Cc1cc2c(=O)n3ccccc3nc2n(CCCN2CCOCC2)c1=O | active: 31.6 µM | – |
| Cn1c(=O)c(CCc2ccccc2)nc2cnc(N3CCNCC3)nc21 | inconclusive: 39.8 µM [inhibitor, single point] | – |
| Cc1cc(N2CCCC2)n2nc(C)c(-c3ccccc3)c2n1 | inconclusive: 25.1 µM [inhibitor, single point] | – |
| CCn1cc(C(=O)N2CC(C)CC(C)C2)c(=O)c2cc(S(=O)(=O)N(C)C)ccc21 (configuration not stated) | – | inactive: -10.4% |
